Patent US9199944B2 (priority 2012, dated 2015)

How the values were obtained:
Assay in all cases: cells
[1] = test system: H1993 (lung cancer cells); conditions: Homo sapiens, NCI-H1993, 72 h, read-out: H1993CP GI50 (μM)
[2] = test system: H2228 (lung cancer cells); conditions: Homo sapiens, NCI-H2228, 72 h, read-out: H2228CP GI50 (μM)
[3] = test system: H3122 (lung cancer cells); conditions: Homo sapiens, NCI-H3122, 72 h, read-out: H3122CP GI50 (μM)
[4] = test system: Hs746T (stomach cancer cells); conditions: Homo sapiens, 72 h, read-out: Hs746TCP GI50 (μM)

Compound	GI50 [1] [µM]	GI50 [2] [µM]	GI50 [3] [µM]	GI50 [4] [µM]
COc1cc(N2CCN(C(=O)CO)CC2)ccc1Nc1ncc(Cl)c(Nc2ccc(N3CCN(C(C)=O)CC3)cc2OC)n1 [Example 83, 1-(4-(4-((4-((4-(4-acetylpiperazin-1-yl)-2-methoxyphenyl)amino)-5-chloropyrimidin-2-yl)amino)-3-methoxyphenyl)piperazin-1-yl)-2-hydroxyethanone]	> 10	0.064	0.0008	0.67
CC(=O)N1CCN(c2ccc(Nc3ncc(Cl)c(Nc4ccc(N5CCN(C(C)=O)CC5)cc4)n3)cc2)CC1 [Example 9, 1,1′-(4,4′-(4,4′-(5-chloropyrimidin-2,4-diyl)bis(azanediyl)bis(4,1-phenylene))bis(piperazin-4,1-diyl))diethanone]	2.14	1.39	0.91	1.46
COc1cc(N2CCN(C(C)=O)CC2)ccc1Nc1ncc(C(F)(F)F)c(Nc2ccc(N3CCN(C(=O)CO)CC3)cc2OC)n1 [Example 58, 1-(4-(4-((2-((4-(4-acetylpiperazin-1-yl)-2-methoxyphenyl)amino)-5-(trifluoromethyl)pyrimidin-4-yl)amino)-3-methoxyphenyl)piperazin-1-yl)-2-hydroxyethanone]	8.26	0.143	0.0014	1.86
COc1cc(N2CCN(C(C)=O)CC2)ccc1Nc1ncc(Cl)c(Nc2ccc(N3CCN(C(=O)CO)CC3)cc2OC)n1 [Example 14, 1-(4-(4-(2-(4-(4-acetylpiperazin-1-yl)-2-methoxyphenylamino)-5-chloropyrimidin-4-ylamino)-3-methoxyphenyl)piperazin-1-yl)-2-hydroxyethanone]	7.44	0.093	0.012	3.42
CCNC(=O)N1CCN(c2ccc(Nc3nc(Nc4ccc(N5CCN(C(C)=O)CC5)cc4OC)ncc3C(F)(F)F)c(OC)c2)CC1 [Example 57, 4-(4-((2-((4-(4-acetylpiperazine)-2-methoxyphenyl)amino)-5-(trifluoromethyl)pyrimidin-4-yl)amino)-3-methoxyphenyl)-N-ethylpiperazin-1-carboxyamide]	0.98	0.037	0.001	0.33
COc1cc(N2CCN(C(C)=O)CC2)ccc1Nc1ncc(F)c(Nc2ccc(N3CCN(C(=O)CO)CC3)cc2OC(F)F)n1 [Example 44, 1-(4-(4-(2-(4-(4-acetylpiperazin-1-yl)-2-methoxyphenylamino)-5-fluoropyrimidin-4-ylamino)-3-(difluoromethoxy)phenyl)piperazin-1-yl)-2-hydroxyethanone]	> 10	0.952	0.02	8.04
COc1cc(N2CCN(C(C)=O)CC2)ccc1Nc1ncc(Cl)c(Nc2ccc(N3CCN(C(C)=O)CC3)cc2OC(C)C)n1 [Example 3, 1-(4-(4-(4-(4-(4-acetylpiperazin-1-yl)-2-isopropoxyphenylamino)-5-chloropyrimidin-2-ylamino)-3-methoxyphenyl)piperazin-1-yl)ethanone]	5.94	1.17	0.41	2.92
COc1cc(N2CCN(C(C)=O)CC2)ccc1Nc1ncc(F)c(Nc2ccc(N3CCNCC3)cc2OC)n1 [Example 25, 1-(4-(4-(5-fluoro-4-(2-methoxy-4-(piperazin-1-yl)phenylamino)pyrimidin-2-ylamino)-3-methoxyphenyl)piperazin-1-yl)ethanone]	1.08	0.148	0.022	> 10
COc1cc(N2CCN(C(C)=O)CC2)ccc1Nc1ncc(F)c(Nc2ccc(N3CCN(C)CC3)cc2OC(F)F)n1 [Example 38, 1-(4-(4-(4-(2-(difluoromethoxy)-4-(4-methylpiperazin-1-yl)phenylamino)-5-fluoropyrimidin-2-ylamino)-3-methoxyphenyl)piperazin-1-yl)ethanone]	> 10	1.28	0.0091	7.84
COc1cc(N2CCN(C(C)=O)CC2)ccc1Nc1ncc(Cl)c(Nc2ccc(N3CCN(S(C)(=O)=O)CC3)cc2OC)n1 [Example 13, 1-(4-(4-(5-chloro-4-(2-methoxy-4-(4-(methylsulfonyl)piperazin-1-yl)phenylamino)pyrimidin-2-ylamino)-3-methoxyphenyl)piperazin-1-yl)ethanone]	2.48	0.126	0.218	3.62
COc1cc(N2CCN(C(C)=O)CC2)ccc1Nc1nc(Nc2ccc(N3CCN(C(C)=O)CC3)cc2)ncc1Cl [Example 10, 1-(4-(4-(4-(4-(4-acetylpiperazin-1-yl)-2-methoxyphenylamino)-5-chloropyrimidin-2-ylamino)phenyl)piperazin-1-yl)ethanone]	0.977	0.281	0.096	1.05
COc1cc(N2CCN(C(C)=O)CC2)ccc1Nc1ncc(Cl)c(Nc2ccc(N3CCN(C(C)=O)CC3)cc2)n1 [Example 8, 1-(4-(4-(2-(4-(4-acetylpiperazin-1-yl)-2-methoxyphenylamino)-5-chloropyrimidin-4-ylamino)phenyl)piperazin-1-yl)ethanone]	9.14	2.06	0.81	2.88
CCNC(=O)N1CCN(c2ccc(Nc3nc(Nc4ccc(N5CCN(C(C)=O)CC5)cc4OC)ncc3F)c(OC)c2)CC1 [Example 31, 4-(4-(2-(4-(4-acetylpiperazin-1-yl)-2-methoxyphenylamino)-5-fluoropyrimidin-4-ylamino)-3-methoxyphenyl)-N-ethylpiperazin-1-carboxyamide]	3.68	0.492	0.196	> 10
COc1cc(N2CCN(CCO)CC2)ccc1Nc1ncc(C(F)(F)F)c(Nc2ccc(N3CCN(C(C)=O)CC3)cc2OC)n1 [Example 68, 1-(4-(4-((2-((4-(4-(2-hydroxyethyl)piperazin-1-yl)-2-methoxyphenyl)amino)-5-(trifluoromethyl)pyrimidin-4-yl)amino)-3-methoxyphenyl)piperazin-1-yl)ethanone]	3.36	0.119	0.0003	2.25
CCNC(=O)N1CCN(c2ccc(Nc3ncc(C(F)(F)F)c(Nc4ccc(N5CCN(C(=O)NCC)CC5)cc4OC)n3)c(OC)c2)CC1 [Example 71, 4,4′-(((5-(trifluoromethyl)pyrimidin-2,4-diyl)bis(azanediyl))bis(3-methoxy-4,1-phenylene))bis(N-ethylpiperazin-1-carboxyamide)]	5.7	1.41	0.115	2.06
CCOc1cc(N2CCN(C(C)=O)CC2)ccc1Nc1nc(Nc2ccc(N3CCN(C(C)=O)CC3)cc2OC)ncc1F [Example 29, 1-(4-(4-(4-(4-(4-acetylpiperazin-1-yl)-2-ethoxyphenylamino)-5-fluoropyrimidin-2-ylamino)-3-methoxyphenyl)piperazin-1-yl)ethanone]	9.85	0.411	0.347	> 10
COc1cc(N2CCNCC2)ccc1Nc1ncc(C(F)(F)F)c(Nc2ccc(N3CCN(C(C)=O)CC3)cc2OC)n1 [Example 63, 1-(4-(3-methoxy-4-((2-((2-methoxy-4-(piperazin-1-yl)phenyl)amino)-5-(trifluoromethyl)pyrimidin-4-yl)amino)phenyl)piperazin-1-yl)ethanone]	2.38	0.132	0.0009	3.13
